PubChem BioAssay (NCATS)
Inconclusive means that the source gave no clear call. Such entries were picked first, then a sample of the others. For some of these results: Where the call is inconclusive, the potency comes from a doubtful curve fit. For some of these results: “Side channel” marks fits to a control or component signal instead of the main read-out. The source made the active and inactive calls. Unless noted, the call rests on the fitted dose curve.

Legend:
[1] = Cell Viability - Jurkat (AID 426;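 active means dose-dependent loss of cell ATP signal giving a full or clear fitted curve, ranked by lower potency value; inconclusive means weak partial curve or response only at the top dose; inactive means no loss of viability signal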; further: potency means the concentration at half of the fitted maximal effect); details: qHTS
Procedure, shortened: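 Jurkat (clone E6-1, human T-cell leukemia) cells, 5000/well in complete medium, were exposed to compound for 40 hr at 37 °C. Viability was read as intracellular ATP by CellTiter-Glo luminescence; AC50 came from Hill fits of concentration-response data.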

[2] = biological target: Mitogen-activated protein kinase 10 (Mus musculus) (UniProt Q61831); assay: JNK3 AlphaScreen Assay (AID 530; active means well fitted curve in either direction with a large enough effect, not every such curve was filed as active; inconclusive means small, poorly fitted or top-dose-only effect, or another doubt;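 further: kinase came from lysate of stimulated human HepG2 cells; signal reports phosphorylation of biotinylated GST-cJun 1-79 at Ser73 with 10 µM ATP; potency means the concentration at half of the fitted maximal effect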); details: JNK3 lysate, c-Jun phosphorylation; activity change, negative = inhibition: at 57.1 µM (top of the series)
Procedure, shortened: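 Room-temperature AlphaScreen kinase assay; pre-activated HepG2 lysate as JNK3 source, biotin-GST-cJun(1-79) substrate, 10 uM ATP, compound 15 min preincubation.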

[3] = Cell Viability - NIH 3T3 (AID 541; active means well fitted curve in the direction sought with a large enough effect; inconclusive means small, poorly fitted or top-dose-only effect, or another doubt; inactive means no such curve, though single readings can be large; an effect the other way counts as inactive or inconclusive;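 further: plate controls were DMSO alone for no effect and tamoxifen positive control for full effect; nearly all actives have a fitted effect of over 25% in size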); details: NIH 3T3 cell viability, qHTS; activity change, negative = cytotoxicity: at 92.2 µM (top of the series)
Procedure, shortened: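 NIH 3T3 mouse embryo fibroblasts (1000 cells/well) were plated in complete medium and treated with compound for 40 hr at 37 °C. Viability was read as intracellular ATP by CellTiter-Glo luminescence; AC50 values came from Hill-equation fits of concentration-response data.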

[4] = Cell Viability - H-4-II-E (AID 543; active means well fitted curve in the direction sought with a large enough effect; inconclusive means small, poorly fitted or top-dose-only effect, or another doubt; inactive means no such curve, though single readings can be large; an effect the other way counts as inactive or inconclusive; further: potency means the concentration at half of the fitted maximal effect; nearly all actives have a fitted effect of over 35% in size)
Procedure, shortened: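 Rat hepatoma H-4-II-E cells (1500/well) were plated, incubated 5 hr at 37 °C, then exposed to compounds for 40 hr at 37 °C. Cellular ATP was read by CellTiter-Glo luminescence; AC50 came from Hill-equation fits of concentration-response data.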

[5] = Cell Viability - Renal Proximal Tubule (AID 545; active means well fitted curve in the direction sought with a large enough effect; inconclusive means small, poorly fitted or top-dose-only effect, or another doubt; inactive means no such curve, though single readings can be large; an effect the other way counts as inactive or inconclusive;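 further: 0% = DMSO only and -100% = 100 µM tamoxifen; nearly all actives have a fitted effect of over 40% in size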); details: renal proximal tubule cells viability, primary cells of rat origin; activity change, negative = cytotoxicity: at 91.7 µM (top of the series)
Procedure, shortened: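 Rat renal proximal tubule primary cells, 1000/well, exposed to compounds for 40 hr at 37 °C in complete medium; cellular ATP read by CellTiter-Glo luminescence. AC50 from concentration-response fitted with standard Hill equation.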

[6] = MultiTox-Fluor Cytotoxicity Assay - LYMP1-002 - Live Cells (AID 955; active means well fitted curve in the direction sought with a large enough effect; inconclusive means small, poorly fitted or top-dose-only effect, or another doubt; inactive means no such curve, though single readings can be large; an effect the other way counts as inactive or inconclusive; further: potency means the concentration at half of the fitted maximal effect)
Procedure, shortened: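 Human lymphoblastoid LYMP1-002 cells, 2500/well in complete medium, rested 5 hr at 37 C, then exposed to compounds for 16 hr at 37 C. Live-cell protease cleavage of GF-AFC read by fluorescence (Ex/Em 405/510) after 60 min at room temperature; AC50 from Hill fits.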

[7] = MultiTox-Fluor Cytotoxicity Assay - LYMP1-002 - Dead Cells (AID 960; active means well fitted curve in the direction sought with a large enough effect; inconclusive means small, poorly fitted or top-dose-only effect, or another doubt; inactive means no such curve, though single readings can be large; an effect the other way counts as inactive or inconclusive; further: potency means the concentration at half of the fitted maximal effect; nearly all actives have a fitted effect of over 60% in size); details: LYMP1-002 lymphoblastoid cells, dead-cell protease fluorescence; cytotoxicity (dead cells): at 46.1 µM (top of the series)
Procedure, shortened: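 Human lymphoblastoid cells (LYMP1-002), 2500/well in complete medium, were exposed to compounds for 16 hr at 37 C. Dead-cell protease activity was read as bis-AAF-R110 fluorescence (Ex/Em 485/520), normalized to DMSO and 15 uM tetraoctylammonium bromide; AC50 from Hill fits.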

[8] = Cell Viability - LYMP2-005 (AID 967; active means well fitted curve in the direction sought with a large enough effect; inconclusive means small, poorly fitted or top-dose-only effect, or another doubt; inactive means no such curve, though single readings can be large; an effect the other way counts as inactive or inconclusive;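 further: plate controls were DMSO only for no effect and 92 µM tetraoctylammonium bromide control for full effect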)
Procedure, shortened: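 Human lymphoblastoid LYMP2-005 cells, 2,500 per well in complete medium, rested 5 h at 37C then compound-treated 24 h at 37C. Intracellular ATP read by CellTiter-Glo luminescence after 30 min at room temperature; AC50 from Hill-equation fits of concentration-response data.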

[9] = qHTS Assay for Identification of Small Molecule Inducers of Hypoxia Response (AID 2120; active means well fitted curve in the direction sought with a large enough effect in the signal ratio, with a control signal flat, not every such curve was filed as active; inconclusive means small, poorly fitted or top-dose-only effect, or a change in a side signal; inactive means no such curve, though single readings can be large or run the other way; the % refers to the signal ratio; further: potency means the concentration at half of the fitted maximal effect); details: hypoxia response reporter cells, beta-lactamase ratio readout; activation: at 104 µM (top of the series)
Procedure, shortened: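 HRE-beta-lactamase reporter in CellSensor HRE-bla ME-180 cells, 2500 cells/well in Opti-MEM with 0.5% dialyzed FBS; compounds tested as titration series, 17 h at 37 degrees C. CCF4 substrate 2.5 h at room temperature; AC50 from 460/530 nm ratio.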

[10] = biological target: Estrogen receptor (Homo sapiens) (UniProt P03372); assay: qHTS assay for small molecule agonists of estrogen receptor alpha signaling (AID 588514); details: ER-alpha-UAS-bla HEK293, beta-lactamase ratio, 18 h; activation: at 76.8 µM (top of the series), percent of full estradiol response, vehicle zero; further: potency means the concentration at half of the fitted maximal effect; nearly all actives have a fitted effect of over 70% in size
Sequence of UniProt P03372 (P03372 whole entry, looked up): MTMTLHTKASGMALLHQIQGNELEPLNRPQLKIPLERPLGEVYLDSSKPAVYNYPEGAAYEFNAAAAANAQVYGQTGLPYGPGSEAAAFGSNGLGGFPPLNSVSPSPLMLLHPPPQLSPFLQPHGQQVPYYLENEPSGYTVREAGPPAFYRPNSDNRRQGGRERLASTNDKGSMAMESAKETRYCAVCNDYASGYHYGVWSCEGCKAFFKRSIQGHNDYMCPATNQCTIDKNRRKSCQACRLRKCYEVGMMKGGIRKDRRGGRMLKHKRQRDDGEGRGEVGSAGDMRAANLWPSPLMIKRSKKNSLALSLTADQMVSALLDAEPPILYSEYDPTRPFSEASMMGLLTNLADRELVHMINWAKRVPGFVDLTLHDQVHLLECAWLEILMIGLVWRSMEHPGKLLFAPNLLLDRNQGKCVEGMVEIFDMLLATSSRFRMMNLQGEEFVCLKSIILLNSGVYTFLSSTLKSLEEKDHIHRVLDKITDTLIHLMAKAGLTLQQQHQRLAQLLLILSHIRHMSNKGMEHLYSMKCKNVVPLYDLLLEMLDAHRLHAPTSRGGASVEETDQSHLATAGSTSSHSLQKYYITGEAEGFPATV
Procedure, shortened: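 ER-alpha-UAS-bla GripTite HEK 293 cells in medium with 2% charcoal/dextran-treated FBS were treated with compound titrations at 37 C for 18 hrs; beta-lactamase reporter read by CCF4 fluorescence after 2 hrs at RT.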

[11] = biological target: Bile acid receptor (Homo sapiens) (UniProt Q96RI1); assay: qHTS assay for small molecule antagonists of farnesoid X receptor signaling (AID 588526); details: HEK293T FXR-UAS-bla, beta-lactamase ratio, antagonist mode; activity change, negative = inhibition: at 76.7 µM (top of the series); further: potency means the concentration at half of the fitted maximal effect
Procedure, shortened: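 Beta-lactamase reporter antagonist mode: HEK293T FXR-UAS-bla cells, titrated compound, CDCA stimulation, 16 h 37 C, CCF4 dye 2 h RT. Data normalized to CDCA 50 uM and DMSO; Hill-fit IC50.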

[12] = biological target: Bile acid receptor (Homo sapiens) (UniProt Q96RI1); assay: qHTS assay for small molecule agonists of farnesoid X receptor signaling (AID 588527); details: HEK293T FXR-UAS-bla, beta-lactamase ratio, 16 h; activation: active compounds read high;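 further: 0% = vehicle basal and 100% = reference agonist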
Procedure, shortened: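 FXR-UAS-bla HEK293T cells (10% dialyzed FBS) preincubated 5-7 h at 37 C, then compounds at up to 92 uM for 16 h at 37 C. CCF4 beta-lactamase read-out after 2 h RT. Normalized to chenodeoxycholic acid (100 uM) and DMSO; Hill fit gave EC50 and efficacy.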

[13] = biological target: Glucocorticoid receptor (Homo sapiens) (UniProt P04150); assay: qHTS assay for small molecule agonists of glucocorticoid receptor signaling (AID 588532; active means well fitted curve in the direction sought with a large enough effect in the signal ratio, with a control signal flat; inconclusive means small, poorly fitted or top-dose-only effect, or a change in a side signal; inactive means no such curve, though single readings can be large or run the other way; the % refers to the signal ratio; further: potency means the concentration at half of the fitted maximal effect); details: HeLa MMTV-bla, beta-lactamase ratio, agonist, 18 h; activation: active compounds read high, percent of dexamethasone control, DMSO zero
Procedure, shortened: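 Agonist-mode qHTS: GRE-driven beta-lactamase in HeLa cells exposed 18 h to titrated compounds (up to 92 uM), then CCF4 ratio read after 2 h at RT; Hill-fitted EC50, efficacy relative to 0.1 uM dexamethasone.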

[14] = biological target: Glucocorticoid receptor (Homo sapiens) (UniProt P04150); assay: qHTS assay for small molecule antagonists of glucocorticoid receptor signaling (AID 588533; active means well fitted inhibition curve with a large enough effect in the signal ratio, with a control signal flat, not every such curve was filed as active; inconclusive means small, poorly fitted or top-dose-only effect, or effect the other way, or a change in a side signal; the % refers to the signal ratio); details: HeLa MMTV-bla, GRE beta-lactamase ratio, antagonist mode, 18 h; activity change, negative = inhibition: at 76.8 µM (top of the series)
[15] = biological target: Peroxisome proliferator-activated receptor delta (Homo sapiens) (UniProt Q03181); assay: qHTS assay for small molecule antagonists of peroxisome proliferator-activated receptor delta signaling (AID 588535; active means well fitted inhibition curve with a large enough effect in the signal ratio, with a control signal flat, not every such curve was filed as active; inconclusive means small, poorly fitted or top-dose-only effect, or effect the other way, or a change in a side signal; inactive means no such curve, though single readings can be large or run the other way; the % refers to the signal ratio; further: potency means the concentration at half of the fitted maximal effect); details: HEK293T PPARd-UAS-bla, beta-lactamase FRET ratio, 18 h; activity change, negative = inhibition: at 76.7 µM (top of the series)
Sequence of UniProt Q03181 (Q03181 whole entry, looked up): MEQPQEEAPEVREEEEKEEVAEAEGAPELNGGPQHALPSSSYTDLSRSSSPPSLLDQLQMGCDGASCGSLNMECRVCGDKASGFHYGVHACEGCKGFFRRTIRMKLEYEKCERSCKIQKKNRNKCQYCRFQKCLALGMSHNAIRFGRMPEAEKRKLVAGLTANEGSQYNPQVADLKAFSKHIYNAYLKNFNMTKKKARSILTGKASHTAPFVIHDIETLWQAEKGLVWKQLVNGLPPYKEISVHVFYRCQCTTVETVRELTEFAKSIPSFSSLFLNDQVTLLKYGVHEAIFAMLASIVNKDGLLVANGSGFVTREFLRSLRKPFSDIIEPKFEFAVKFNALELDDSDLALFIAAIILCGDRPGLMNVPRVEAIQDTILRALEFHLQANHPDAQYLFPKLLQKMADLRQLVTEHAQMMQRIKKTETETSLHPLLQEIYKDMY
Procedure, shortened: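 Cell-based beta-lactamase assay in antagonist mode: 4000 HEK293T PPAR-delta-UAS-bla cells per well, 5 hr preincubation then 18 hr compound incubation at 37 C. IC50 obtained by Hill equation fitting.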

[16] = biological target: Peroxisome proliferator-activated receptor gamma (Homo sapiens) (UniProt P37231); assay: qHTS assay for small molecule agonists of peroxisome proliferator-activated receptor gamma signaling (AID 588536; active means well fitted curve in the direction sought with a large enough effect in the signal ratio, with a control signal flat, not every such curve was filed as active; inconclusive means small, poorly fitted or top-dose-only effect, or effect the other way, or a change in a side signal; inactive means no such curve, though single readings can be large or run the other way; the % refers to the signal ratio; further: potency means the concentration at half of the fitted maximal effect); details: HEK293 PPARg-UAS-bla, beta-lactamase ratio, 16 h; activation: at 76.7 µM (top of the series), percent of rosiglitazone response, DMSO as zero
Procedure, shortened: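 GeneBLAzer PPAR-gamma-UAS-bla HEK293 cells in 1% charcoal/dextran-treated FBS medium were treated 16 h at 37 C with compounds. Beta-lactamase activity was read by CCF4 ratio (460/530 nm). Response was normalized to 2 uM rosiglitazone (100%) and DMSO, then Hill-fitted for EC50 and efficacy.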

[17] = biological target: Vitamin D3 receptor (Homo sapiens) (UniProt P11473); assay: qHTS assay for small molecule antagonists of vitamin D receptor signaling (AID 588541); details: HEK293T VDR-UAS-bla, beta-lactamase ratio, antagonist mode; activity change, negative = inhibition: at 76.7 µM (top of the series); further: potency means the concentration at half of the fitted maximal effect
[18] = biological target: Vitamin D3 receptor (Homo sapiens) (UniProt P11473); assay: qHTS assay for small molecule agonists of vitamin D receptor signaling (AID 588543); details: HEK293T VDR-UAS-bla, beta-lactamase ratio, 16 h; activation: at 76.8 µM (top of the series); further: potency means the concentration at half of the fitted maximal effect
Procedure, shortened: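 VDR-UAS-bla HEK293T cells, 2000/well, 2% charcoal-stripped FBS; compound titration 16 h at 37 C; CCF4 beta-lactamase ratio read. Normalized to 50 nM 1-alpha,25-dihydroxyvitamin D3 (100%) and DMSO; Hill fit gives EC50, efficacy.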

[19] = biological target: Retinoic acid receptor RXR-alpha (Homo sapiens) (UniProt P19793); assay: qHTS assay for small molecule agonists of retinoid X receptor alpha signaling (AID 588544); details: HEK293T RXRa-UAS-bla, beta-lactamase reporter, 18 h; activation: at 76.7 µM (top of the series) unless noted;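 further: 0% = DMSO basal wells and 100% = reference agonist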
Sequence of UniProt P19793 (P19793 whole entry, looked up): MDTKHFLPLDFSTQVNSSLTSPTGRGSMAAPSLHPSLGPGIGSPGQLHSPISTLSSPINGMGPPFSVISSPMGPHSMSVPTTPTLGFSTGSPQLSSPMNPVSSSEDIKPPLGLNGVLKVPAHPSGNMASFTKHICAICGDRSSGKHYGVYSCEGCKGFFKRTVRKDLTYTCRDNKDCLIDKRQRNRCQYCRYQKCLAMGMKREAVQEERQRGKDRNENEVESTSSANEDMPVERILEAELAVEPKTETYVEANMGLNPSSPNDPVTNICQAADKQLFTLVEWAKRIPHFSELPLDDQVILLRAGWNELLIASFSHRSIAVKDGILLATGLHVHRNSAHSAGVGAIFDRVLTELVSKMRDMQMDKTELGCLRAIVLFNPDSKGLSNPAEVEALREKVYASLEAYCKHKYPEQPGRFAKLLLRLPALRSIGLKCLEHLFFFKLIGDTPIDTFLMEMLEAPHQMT

[20] = biological target: Thyroid hormone receptor beta (Homo sapiens) (UniProt P10828); assay: qHTS assay for small molecule agonists of thyroid hormone receptor beta signaling (AID 588545); details: TR-UAS-bla GripTite HEK 293, beta-lactamase ratio, agonist mode, 18 h; activation: at 76.7 µM, percent of T3 response, DMSO as zero; further: potency means the concentration at half of the fitted maximal effect
Sequence of UniProt P10828 (P10828 whole entry, looked up): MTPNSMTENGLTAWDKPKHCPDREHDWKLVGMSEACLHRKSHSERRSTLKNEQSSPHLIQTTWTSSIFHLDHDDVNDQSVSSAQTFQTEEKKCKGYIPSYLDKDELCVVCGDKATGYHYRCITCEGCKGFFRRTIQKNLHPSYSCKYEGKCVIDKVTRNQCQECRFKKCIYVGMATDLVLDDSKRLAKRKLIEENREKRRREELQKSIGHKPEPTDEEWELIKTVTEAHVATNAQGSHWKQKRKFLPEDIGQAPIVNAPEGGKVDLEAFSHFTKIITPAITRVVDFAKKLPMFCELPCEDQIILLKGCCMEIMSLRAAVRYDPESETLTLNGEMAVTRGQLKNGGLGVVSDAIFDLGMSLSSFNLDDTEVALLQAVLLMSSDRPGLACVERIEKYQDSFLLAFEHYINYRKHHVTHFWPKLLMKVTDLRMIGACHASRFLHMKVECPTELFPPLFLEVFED
Procedure, shortened: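 Agonist-mode beta-lactamase reporter assay, HEK 293 cells, 2% charcoal/dextran FBS; cells plated 4 hrs, compound 18 hrs at 37 C, CCF4 2 hrs RT. Normalized to 10 nM T3 (100%) and DMSO (0%); Hill fit gives EC50, efficacy.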

[21] = biological target: Retinoic acid receptor RXR-alpha (Homo sapiens) (UniProt P19793); assay: qHTS assay for small molecule antagonists of retinoid X receptor alpha signaling (AID 588546; active means well fitted inhibition curve with a large enough effect in the signal ratio, with a control signal flat, not every such curve was filed as active; inconclusive means small, poorly fitted or top-dose-only effect, or effect the other way, or a change in a side signal; inactive means no such curve, though single readings can be large or run the other way; the % refers to the signal ratio; further: potency means the concentration at half of the fitted maximal effect); details: HEK293T RXRa-UAS-bla, beta-lactamase ratio, antagonist mode
Procedure, shortened: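 Beta-lactamase reporter inhibition, read as CCF4 fluorescence ratio (ex 405, em 460/530 nm) after 2 h at RT. HEK293T UAS-bla cells, 2500/well, were stimulated with 9-cis-RA at 500 or 100 nM final alongside test compound for 18 h at 37 C.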

[22] = biological target: Thyroid hormone receptor beta (Homo sapiens) (UniProt P10828); assay: qHTS assay for small molecule antagonists of thyroid hormone receptor beta signaling (AID 588547; active means well fitted inhibition curve with a large enough effect in the signal ratio, with a control signal flat, not every such curve was filed as active; inconclusive means small, poorly fitted or top-dose-only effect, or effect the other way, or a change in a side signal; the % refers to the signal ratio; further: potency means the concentration at half of the fitted maximal effect); details: TR-UAS-bla HEK293, beta-lactamase ratio, antagonist mode, 18 h
Procedure, shortened: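 Inhibition of T3-driven (0.4nM final) beta-lactamase reporter activity was measured over 0.59 nM to 92 uM compound after 18 h at 37 C. The cells were GripTite HEK293 TR-UAS-bla in charcoal/dextran-stripped serum, with CCF4 ratio read-out and IC50 from Hill fits.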

[23] = qHTS assay for small molecule activators of the nuclear factor-kappa B (NF-kB) signaling pathway (AID 651749; active means well fitted activation curve with a large enough effect in the signal ratio; inconclusive means small, poorly fitted or top-dose-only effect, or a change in a side signal; the % refers to the signal ratio; further: potency means the concentration at half of the fitted maximal effect); details: NF-kB-bla ME-180 cells, beta-lactamase FRET ratio, 16 h; activation: active compounds read high
Procedure, shortened: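 Stably transfected ME-180 line; NF-kB response element upstream of beta-lactamase. Treatment: compound or DMSO, 16 hr. Detection: fluorescent FRET substrate.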

[24] = qHTS assay for small molecule disruptors of the mitochondrial membrane potential - 1 hr assay (AID 651754); details: ratio change, negative = depolarisation: at 92.2 µM (top of the series); further: potency means the concentration at half of the fitted maximal effect; nearly all actives have a fitted effect of over 35% in size
Procedure, shortened: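 HepG2 cells, attached overnight at 37C, were exposed to compound or DMSO vehicle for 1 hr at 37C, 5% CO2, then stained with Mito-MPS dye for 30 min. Red aggregate versus green monomer fluorescence reports membrane potential.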

[25] = qHTS assay for small molecule disruptors of the mitochondrial membrane potential - 5 hr assay (AID 651755); details: JC-1-type ratio dye; ratio change, negative = disruption: at 92.2 µM (top of the series); further: potency means the concentration at half of the fitted maximal effect; nearly all actives have a fitted effect of over 40% in size
Procedure, shortened: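 HepG2, 2,000 cells/well, overnight attach; cpd or DMSO 5 hr, 37C/5% CO2; Mito-MPS 30 min 37C; fluor 490/535 + 540/590 nm.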

[26] = biological target: Tumor necrosis factor (Homo sapiens) (UniProt P01375); assay: qHTS assay to identify small molecules that stimulate Tumor Necrosis Factor-alpha (TNF-alpha) secretion (AID 651757; active means well fitted curve in the direction sought with a large enough effect in the signal ratio; inconclusive means small, poorly fitted or top-dose-only effect, or a change in a side signal; inactive means no such curve, though single readings can be large or run the other way; the % refers to the signal ratio; further: 0% is about no effect); details: Human cells, HTRF 665/615 ratio; activation (TNF-alpha secretion): at 92.2 µM (top of the series)
Sequence of UniProt P01375 (P01375 whole entry, looked up): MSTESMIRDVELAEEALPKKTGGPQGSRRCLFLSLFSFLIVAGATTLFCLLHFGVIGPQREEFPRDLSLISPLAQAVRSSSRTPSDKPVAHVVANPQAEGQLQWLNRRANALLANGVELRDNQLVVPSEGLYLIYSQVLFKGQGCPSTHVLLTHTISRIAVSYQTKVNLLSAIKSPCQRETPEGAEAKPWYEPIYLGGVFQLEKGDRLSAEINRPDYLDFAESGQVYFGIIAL
Procedure, shortened: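 THP-1 cells were exposed to compounds for 17 hrs at 37 C, after which secreted TNF-alpha was measured by homogeneous HTRF (TR-FRET) using cryptate- and XL665-labeled anti-TNF-alpha antibodies, read after 3 hr at room temperature.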

[27] = qHTS assay to identify small molecules that stimulate interleukin-8 (IL-8) secretion (AID 651758; active means well fitted activation curve with a large enough effect in the signal ratio; inconclusive means small, poorly fitted or top-dose-only effect, or effect the other way, or a change in a side signal; the % refers to the signal ratio; further: potency means the concentration at half of the fitted maximal effect); details: HTRF ratio (665/615); activation: at 92.2 µM (top of the series)
Procedure, shortened: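 Secreted IL-8 measured by TR-FRET sandwich (cryptate and XL665 antibodies) from THP-1 cells exposed to compound overnight (16 hrs, 37 C).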

[28] = qHTS assay for small molecule agonists of the antioxidant response element (ARE) signaling pathway measured by Nrf2-dependant transcriptional activity (AID 720636; active means well fitted curve in the direction sought with a large enough effect in the repeat runs; inconclusive means weak or mixed curves; inactive means no such curve, though single readings can be large; an effect the other way counts as inactive or inconclusive;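 further: HepG2 cells with an ARE-driven luciferase reporter; % of control where 0% means no effect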)
Procedure, shortened: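 Nrf2-dependent transcription is measured in ARE-luc HepG2 cells: compound is applied for 16 hr at 37 C after a 6 hr attachment period, and luciferase activity is quantified by luminescence using ONE-Glo.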
Tags describe the fitted curve by direction and shape or compound fluorescence and quenching.

CCN(CC)c1ccc2c(C)cc(=O)oc2c1
inactive: Potency [1] > 92 µM | Potency [8] | Potency [28]
active: Potency [9] 44.7 µM | Potency [18] 44.7 µM | Potency [20] 22.4 µM
inconclusive: Potency [2] 20 µM [activator, partial curve] | activity change, negative = cytotoxicity [3] -50.2% | Potency [4] 39.8 µM [falling, partial curve] | activity change, negative = cytotoxicity [5] -37.3% | Potency [6] 15.8 µM [rising, partial curve, poor fit] | Potency [7] 25.1 µM [cytotoxic, partial curve] | Potency [10] 31.6 µM [fluorescent, partial curve, poor fit] | Potency [11] 28.2 µM [side channel, rising, partial curve, poor fit] | activation [12] 71.3% | Potency [13] 39.8 µM [fluorescent, side channel] | Potency [14] 39.8 µM [activator, partial curve, poor fit] | Potency [15] 39.8 µM [fluorescent, side channel, partial curve] | Potency [16] 31.6 µM [activator, partial curve] | Potency [17] 25.1 µM [activator, partial curve] | activation [19] 124% | Potency [21] 35.5 µM [fluorescent, side channel, partial curve] | Potency [22] 25.1 µM [activator, partial curve] | Potency [23] 39.8 µM [activator, partial curve] | Potency [24] 2.82 µM [side channel, rising, full curve] | Potency [25] 2.51 µM [side channel, rising, full curve] | activation (TNF-alpha secretion) [26] 3.54% | Potency [27] 66.8 µM [rising, partial curve]
